Laboratory results reported in the supplement of paper PMC10126150.
Sequences with one replicate were seen in a single cluster, so their values are uncertain.

System: ATP
Experiment: switch fluorescence ratio, 500 uM ATP over buffer (Cy3 cluster intensity, sum of 5 cycles each) (fold (ratio)); higher = stronger signal-on switching upon ATP binding; sequences stand for … in TCGTCGGCAGCGTCAGATGTGTATAAGAGACAGTTTTTTTTTTTTTTTTTTTTTTTTT…TC
Details: aptamer strand: ATP DNA aptamer (quencher-CACCTGGGGGAGTATTGCGGAGGAAGG + anchor), 100 nM annealed; ATP concentration: 500 uM; one replicate
Procedure, shortened: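 Values give the fluorescence ratio for each switch-domain sequence, averaged from per-cluster ratios of summed target-cycle to summed buffer-cycle Cy3 intensity. The Cy3-labelled switching-strand clusters sat on a modified Illumina MiSeq flow-cell, were annealed to 100 nM quencher-labelled ATP aptamer, and were imaged in selection buffer, then after 15 min with 500 uM ATP at 22 °C. Five cycles ran with NaOH stripping and re-annealing between them, and clusters outside 100-1000 RFU were excluded.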
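Also: ATP exposure 15 min at 22 °C before imaging.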

Sequence: TACTTATTTT
- switch fluorescence ratio: 1.01

Sequence: AGTGGGCCAC
- switch fluorescence ratio: 0.977

Sequence: CTTCAGGGGC
- switch fluorescence ratio: 1.27

Sequence: AAATCGGGGA
- switch fluorescence ratio: 0.994

Sequence: ACGCACACCG
- switch fluorescence ratio: 1.57

Sequence: TGGCCTAGGA
- switch fluorescence ratio: 1.02

Sequence: ATCCTAAAAT
- switch fluorescence ratio: 1.01

Sequence: CGAAGCAGAG
- switch fluorescence ratio: 2.12

Sequence: TGCGGGGCCC
- switch fluorescence ratio: 0.946

Sequence: AAAGTGCTCG
- switch fluorescence ratio: 0.975

Sequence: CTTATAGTT
- switch fluorescence ratio: 0.978

Sequence: TGAGCAAAAA
- switch fluorescence ratio: 1.02

Sequence: GACCGGCAAG
- switch fluorescence ratio: 1.06

Sequence: ATGTGAGCAG
- switch fluorescence ratio: 0.981

Sequence: CCCTGAATCG
- switch fluorescence ratio: 0.998

Sequence: TGTTGGCTTC
- switch fluorescence ratio: 1.03

Sequence: CCGATGCCTT
- switch fluorescence ratio: 2.08

Sequence: GTTGTTGCCA
- switch fluorescence ratio: 0.982

Sequence: TCTTAAGGTG
- switch fluorescence ratio: 1.93

Sequence: TGATCAATG
- switch fluorescence ratio: 0.995

Sequence: CTGGTGATC
- switch fluorescence ratio: 0.991

Sequence: CTTTGGGGTC
- switch fluorescence ratio: 0.981

Sequence: AGGAATCGG
- switch fluorescence ratio: 0.987

Sequence: AAGGCTGCTC
- switch fluorescence ratio: 1.02

Sequence: TTATGACAGT
- switch fluorescence ratio: 1.05

Sequence: GATGGGCAT
- switch fluorescence ratio: 1.04

Sequence: GACATTATGA
- switch fluorescence ratio: 1.02

Sequence: AAGACATACC
- switch fluorescence ratio: 1.42

Sequence: CTCGGCCTAA
- switch fluorescence ratio: 1.13

Sequence: TGTAGTTGGC
- switch fluorescence ratio: 1.02

Sequence: TGGTATGAC
- switch fluorescence ratio: 0.997

Sequence: ACGTACGGG
- switch fluorescence ratio: 1.67

Sequence: GCAGAAAAGT
- switch fluorescence ratio: 1.01

Sequence: CCTCCTTGA
- switch fluorescence ratio: 1.12

Sequence: AAATAAAGAA
- switch fluorescence ratio: 0.943

Sequence: GTTGTTCTT
- switch fluorescence ratio: 0.969

Sequence: TGGCAAAAGA
- switch fluorescence ratio: 1.09

Sequence: ATCTCATTGT
- switch fluorescence ratio: 0.967

Sequence: AGACATTCGG
- switch fluorescence ratio: 1

Sequence: ACATAGTTGT
- switch fluorescence ratio: 1

Sequence: CGTCAGGTTC
- switch fluorescence ratio: 0.987

Sequence: CATGTAAGGT
- switch fluorescence ratio: 0.992

Sequence: AACAATTTCA
- switch fluorescence ratio: 0.982

Sequence: TACTGGTGTT
- switch fluorescence ratio: 1.03

Sequence: GGATTGCGCC
- switch fluorescence ratio: 1.03

Sequence: CCTTAGAATT
- switch fluorescence ratio: 1.05

Sequence: TAATGTCTCA
- switch fluorescence ratio: 0.974

Sequence: TGGGTACCTC
- switch fluorescence ratio: 1.09

Sequence: CGCGCCTGAT
- switch fluorescence ratio: 0.953

Sequence: GCGCACTTTC
- switch fluorescence ratio: 1.2

Sequence: AGGCGGTCAG
- switch fluorescence ratio: 0.988

Sequence: ATACGTATGG
- switch fluorescence ratio: 1.04

Sequence: GTAGTACGGA
- switch fluorescence ratio: 1.04

Sequence: CCTGATTAGC
- switch fluorescence ratio: 1.01

Sequence: GCACATGGAC
- switch fluorescence ratio: 1.15

Sequence: CTGCGACGTA
- switch fluorescence ratio: 0.996

Sequence: TCATCAGAGA
- switch fluorescence ratio: 0.993

Sequence: AACCTCCACC
- switch fluorescence ratio: 1.58

Sequence: TTTGCCGCTT
- switch fluorescence ratio: 0.977

Sequence: CTCTTTAGGC
- switch fluorescence ratio: 1.01

Sequence: GAGTGTTGGC
- switch fluorescence ratio: 0.995

Sequence: TTACAGGGAA
- switch fluorescence ratio: 0.949

Sequence: GCCAGAGGAC
- switch fluorescence ratio: 1.04

Sequence: TGGTAGAAGC
- switch fluorescence ratio: 1.01

Sequence: TATTATGTGA
- switch fluorescence ratio: 0.99

Sequence: TTGGCTAGCA
- switch fluorescence ratio: 0.989

Sequence: GTTAAGAAAT
- switch fluorescence ratio: 0.984

Sequence: AGTGTTTATG
- switch fluorescence ratio: 0.996

Sequence: CCTACCAGCG
- switch fluorescence ratio: 1.54

Sequence: CTCCGTTTTG
- switch fluorescence ratio: 2.25

Sequence: ATATGGTCCT
- switch fluorescence ratio: 1.01

Sequence: GGTAGAAAAA
- switch fluorescence ratio: 1.01

Sequence: GATCGGGTCT
- switch fluorescence ratio: 0.981

Sequence: AAAGCACCCG
- switch fluorescence ratio: 1.06

Sequence: ATCCGTTGAA
- switch fluorescence ratio: 1.04

Sequence: GTACGAGAAA
- switch fluorescence ratio: 1.01

Sequence: TTGATTACCG
- switch fluorescence ratio: 1.04

Sequence: GACGCCGCTT
- switch fluorescence ratio: 2.1

Sequence: AGTCACCATC
- switch fluorescence ratio: 0.956

Sequence: AGATCGGGAG
- switch fluorescence ratio: 0.982

Sequence: ATTTTGGTAC
- switch fluorescence ratio: 1.02

Sequence: GCATCGACGT
- switch fluorescence ratio: 1.02

Sequence: TTTACCTAGG
- switch fluorescence ratio: 0.959

Sequence: AGATAGAATT
- switch fluorescence ratio: 0.982

Sequence: AGGACTAATT
- switch fluorescence ratio: 1.04

Sequence: GAATCAGAGA
- switch fluorescence ratio: 0.997

Sequence: TTAGATTAG
- switch fluorescence ratio: 1

Sequence: TACTGCCTTA
- switch fluorescence ratio: 1.01

Sequence: GAATATCAGA
- switch fluorescence ratio: 0.97

Sequence: GTTTGAACCT
- switch fluorescence ratio: 2.1

Sequence: CTTATATCTG
- switch fluorescence ratio: 0.99

Sequence: ATGAGTCTCA
- switch fluorescence ratio: 0.998

Sequence: AGGGCGTTGA
- switch fluorescence ratio: 1.03

Sequence: AGTTAGCGCT
- switch fluorescence ratio: 0.999

Sequence: TAGCTTCTGT
- switch fluorescence ratio: 1.05

Sequence: CATACCGGCG
- switch fluorescence ratio: 1.01

Sequence: GCCTACATAA
- switch fluorescence ratio: 1.05

Sequence: TCGAAATGGC
- switch fluorescence ratio: 1.14

Sequence: GAGATCAACG
- switch fluorescence ratio: 1.03

Sequence: TACGAACCCA
- switch fluorescence ratio: 1.38

Sequence: GGCGGGCAGG
- switch fluorescence ratio: 0.983

Sequence: AGGTGAGCTG
- switch fluorescence ratio: 1.03

Sequence: ATAGTCGTGC
- switch fluorescence ratio: 1.03

Sequence: TCGTTGACCT
- switch fluorescence ratio: 1.05

Sequence: CAGGCAGTCC
- switch fluorescence ratio: 1.01

Sequence: GGGAATCCC
- switch fluorescence ratio: 0.998

Sequence: GGGTACAACT
- switch fluorescence ratio: 0.99

Sequence: ATGTGTGATC
- switch fluorescence ratio: 1.03

Sequence: TTTTCACATG
- switch fluorescence ratio: 1

Sequence: GCTGTTCGCC
- switch fluorescence ratio: 0.996

Sequence: TGTTCATAGT
- switch fluorescence ratio: 1.01

Sequence: GTAGCTACTT
- switch fluorescence ratio: 0.987

Sequence: GCAGTGGATA
- switch fluorescence ratio: 0.994

Sequence: TTGAGTTAGG
- switch fluorescence ratio: 0.945

Sequence: CGCACAGAAG
- switch fluorescence ratio: 0.967

Sequence: CAGAAAGATG
- switch fluorescence ratio: 1.5

Sequence: TAGAGCGTAG
- switch fluorescence ratio: 1

Sequence: AAAAAAATGA
- switch fluorescence ratio: 1.01

Sequence: GTAGAAGTTC
- switch fluorescence ratio: 1.02

Sequence: TAGCGCGGTT
- switch fluorescence ratio: 0.991

Sequence: TGCAGCAAGA
- switch fluorescence ratio: 3.95

Sequence: GGTCACTAGG
- switch fluorescence ratio: 1.04

Sequence: ACGGGTATCG
- switch fluorescence ratio: 1.03

Sequence: TCCAGTAGAC
- switch fluorescence ratio: 1.22

Sequence: TTGAGATCTA
- switch fluorescence ratio: 0.958

Sequence: TATTTCTCAT
- switch fluorescence ratio: 0.978

Sequence: TGGGAATAC
- switch fluorescence ratio: 2.67

Sequence: AATGAGCCTT
- switch fluorescence ratio: 1.04

Sequence: CTGATCCCTG
- switch fluorescence ratio: 1.01

Sequence: GCAAGCCCTG
- switch fluorescence ratio: 0.986

Sequence: CAGGGGGACC
- switch fluorescence ratio: 0.955

Sequence: GGCGCTAAA
- switch fluorescence ratio: 0.982

Sequence: GGTTACTCTG
- switch fluorescence ratio: 1.07

Sequence: AAGTCGTGGG
- switch fluorescence ratio: 0.99

Sequence: AACTAGTCCT
- switch fluorescence ratio: 1.06

Sequence: TATGACTCTA
- switch fluorescence ratio: 1.02

Sequence: CAGTGAACGG
- switch fluorescence ratio: 0.978

Sequence: AAAGCGATAA
- switch fluorescence ratio: 2.26

Sequence: CGGAGCACAG
- switch fluorescence ratio: 3.57

Sequence: GCTTTATTA
- switch fluorescence ratio: 0.974

Sequence: GCCTAAGTGG
- switch fluorescence ratio: 0.979

Sequence: ATAAATACCT
- switch fluorescence ratio: 1.42

Sequence: CTGTATAGAT
- switch fluorescence ratio: 0.941

Sequence: GTATCGTTTG
- switch fluorescence ratio: 0.989

Sequence: GCCGGAATAA
- switch fluorescence ratio: 2.56

Sequence: GTAATCTAAT
- switch fluorescence ratio: 0.965

Sequence: GTTTGCGATG
- switch fluorescence ratio: 1.02

Sequence: ATCCAAGGGC
- switch fluorescence ratio: 1.06

Sequence: TCTGCGATGA
- switch fluorescence ratio: 1.14

Sequence: ACAAGCTTAT
- switch fluorescence ratio: 1.06

Sequence: CCGTTGGAAT
- switch fluorescence ratio: 1.2

Sequence: GTTAAATACC
- switch fluorescence ratio: 1.02

Sequence: GTGATCGTCT
- switch fluorescence ratio: 1

Sequence: GCGGTTCCGA
- switch fluorescence ratio: 0.979

Sequence: CGGTAGCGGT
- switch fluorescence ratio: 1.04

Sequence: TATTGTAGGC
- switch fluorescence ratio: 1.01

Sequence: GATGAGCTTC
- switch fluorescence ratio: 0.995
